According to the RNAGym collection of RNA variant scans (doi:10.7554/elife.90254):
The source gives no read counts; variants with many changes may rest on few reads.

B1: LINE1-full (parent)
chain: UACGUAGGUGGUUUUCCCCUGAUAGUGCUAAGGGGGCCUGGAAGUUUGGACUGGGCAGAGCUCAACACAGCGUGGCAAAGUGGCUGUGGCUAGACUGCCUCUCUGGAUUCCUCGUCACUCAGCAGGGCAUCUCUGAGAGAAAUGCC

Variants of: B1
Test: self-cleavage, relative activity (ratio to wild type); higher = more cleavage; in vitro, sequencing; the parent is a self-cleaving ribozyme

| Variant | self-cleavage |
| --- | --- |
| UACGUAGGUGGUUUUCCCCUGAUAGUGCUAAGGGGGCCUGGAAGUUUGGACUGGGCGGGGCUCAACACAGCGUGGCAAAGUGGCUGUGGCUAGACUGCCUCUCUGGAUUCCUCGCCACUCAGCAGGGCAUCUCUGAGAGAAAUGCC [A57G A59G U115C] | 0 |
| UACGUAGGCGGUUUUCCCCUGAUAGUGCUAAGGGGGCCUGGAAGUUUGGACUGGGCAGAGCUCAACGCAGCGUGGCAAAGUGGCUGUGGCUAGACUGCCUCUCUGGAUUCCCCGUCACUCAGCAGGGCAUCUCUGAGAGAAAUGCC [U9C A67G U112C] | 0.71 |
| UACGUAGGUGGUUCUCCCCUGAUAGCGCUAAGGGGGCCUGGAAGUUUGGGCAGGGCGGAGCUCAACACAGCGUGGCAAAGUGGCUGUGCCUAGACUGCCUCUCUGGAUUCCUCGUCACUCAGCAGGGCAUCUCUGAGAGAAAUGCC [U14C U26C A50G U52A A57G G89C] | 0 |
| UACGUGGGUGGUUUUCCCCUGAUAGUGCUAAGGGGGCCUGGAAGUUUGGACUGGGCAGAGCUCAACACAGCGUGGCAAAGCGGCUGUGGCUAGGCUGCAUCUCUGGAUUCCUCGUCACUCAGCAGGGCAUCUCUGAGAGAAAUGCC [A6G U81C A94G C99A] | 0 |
| UACGUAGGUGGUUUUCCCCCGAUAGUGCUAAGGGGGCCUGGAAGUUUGGACUGGGCAGAGCUCAACACAGCGUGGCAAAGUGGCUGUGGUUAGACUGCCUCUCUGGAUUCCUCGUCACUCAGCAGGGCAUCUCUGAGAGAGAUGCC [U20C C90U A141G] | 0.03 |
| UACGUAGGUGGUUUUCCCCUGAUAGUGCUAAGGGGGCCUGGAAGUUUGGACUGGGCUGAGCUCAACACAGCGUGGCAAAGUGGCUGAGGCUAGACUGCCUCUCUGGAUUCCUCGUCACUCAGCAGGGCAUCUCUGAGAGGAUUGCC [A57U U87A A140G A142U] | 0.07 |
| UACGUAGGUGGUUUUCCCCUGAUAGUGCUAAGGGGGCCUGGAAGUUCGGACUGGGCAGAGCUCGACACAGCGUGGCAGAGUGGCUGUGGCUAGACUGCCUCUCUGGAUUCCUCGUCACUCAGCAGGGCAUCUCUGAGAGAAAUGCC [U47C A64G A78G] | 0.19 |
| UACGUAGGUGGUUUUCCCCUGAUAAUGCUAAGGGGGCCUGGAAGUUUGGACUGGGCAGAGCUCAACACAGCGUGGCAAAGUGGCUGAGGCUAGACUGCCUCUCUGGAUUCCUCGUCACCCAGCAGGGCACCUCUGAGAGAAAUGCC [G25A U87A U119C U130C] | 0.02 |
| UACGUAGGUGGUUCUCCCCUGAUAGCGCUAAGGGGGCCUGGAAGUUUGGACUGGGCAGGGCUCAACACAGCGUGGCAAAGUGGCUGUGGCUAGACUGCCUCUCUGGAUUCCUCGUCACUCAGCAGGGCAUCCCUGAGAGAUAUGCC [U14C U26C A59G U132C A141U] | 0.16 |
| UACGUUGGUGGUUUUCCCUUGAUAGUGCUAAGGGGGCCUGGAAGUUUGGACUGGGCAGAGCUCAACACAGCGUGGCAAAGUGGCCGUGGCUAGACUGCCUCUCUGGAUUCCUCGUCACUCAGCAGGGCAUCUCUGAGAGAAAUGCC [A6U C19U U85C] | 0.23 |
| UACGUAGGUGGUUUACCCCUGAUAGUGCUAAGGGGGCCUGGAAGUUUGGACUGGGCAGAGCUCAACACAGCGUGGGGAAGUGGCUGUGGCUAGACUGCCUCUCUGGAUUCCUCGUCACUCAGCAGGGCAUCUCUGAGAGAAAUGCC [U15A C76G A77G] | 2.07 |
| UACGUAGGUGGUUUUCCCCUGAUAGUGCUAAGGGGGCCUGGAAGUUUGGACUGGGCAGAGCUCUACACAGCGUGGCAAAGUGGCUGAGGCUAGACCGCCUCUCUGGAUUCCUAGUCACUCAGCAGGGCAUCUCUGAGAGAAAUGCC [A64U U87A U96C C113A] | 0.04 |
| UACGUAGGUGGUUUUCCCCUGAUAGUGCUAAGGGGGCCUGGAAGUUUGGACUGGGCGGAGCUCAACACAGCGUGACAAAGUGGCUGUGGCUAGACUGCCUCUCUGGAUUCCUCGUCACUCAGCAGGGUAUCUCUGAGAGAAAUGCC [A57G G75A C128U] | 0.6 |
| UACGUAGGUGGUUUUCCCCUGAUAGUGCUAAGGGGGCCCGGAAGUUUGGACUGGGCAGAGCUCAACACAGCGUGGCAAAGUGGCGGUGGCCAGACUGCCUCUCUGGAUUCCUCGUCACUCAGCAGGGCAUCUCUGAGAGAAAUGCC [U39C U85G U91C] | 0 |
| UACGUAGGUGGUUUUCCCCUGAUAGUGCUAAGGGGGCCUGGAAGUUUGGACUGGGCAGAGCUCAACACAGCGAGGCAAAGUGGCUGUGGCUAGACUGCCUCUCUGGAUUCCUCGACACUCAGCAGGGCAUCUCUGAGAGAAAUACC [U73A U115A G144A] | 0.77 |
| UACGUAGGUGGUUUUCCCCUGUUAGUGCUAAGGGGGCCUGGAAGUUUGGACUGGGCAGAGCUCAACACAGCGUGGCAAAGUGGCUAUGGCUAGACUGCCUCCCUGGAUUCCUCGUCACUCAGCAGGGCAUCACUGAGAGAAAUGCC [A22U G86A U102C U132A] | 0.15 |
| UACGUAGGUGGUUUUCCCCUGAUAGCGCUAAGGGGGCCUGGAAGUUUGGACUGGGCGGAGCUCAACACAGCGUGGCAAAGUGGCUGUGGCCAGACUGCCUCUCUGGAUUCCUCGUCACUCAGCAGGGCAUCUCUGAGAGAAAUGCC [U26C A57G U91C] | 0 |
| UACGUAGGUGGUCUUCCCCUGAUAGUGCUAAGGGGGCCUGGAAGUUUGGACUGGGCUGAGCUCAACACAGCGUGGCAAAGUGGCUGUGGCUAGACCGCCUCUCUGGAUUCCUCGUCUCUCAGCAGGGCAUCUCUGAGGGAAAUGCC [U13C A57U U96C A117U A138G] | 0.04 |
| UACGUAGGUGGUUUUCCCCUGAUAGUGCUAAGGGGGCCUGGAAGUUUGGACUGGGCAGAGCUCAACACAGCGUGGCAAAGUGGCUGUGGCUAGACUGCCCCUCUGGACUCCUCGUCACUCAGCAGGGCAUCACUGAGAGAAAUGCC [U100C U108C U132A] | 1.43 |
| UACGUAGGUGGUUUUCCCCUGAUAGUGCUAAGGGGGCCUGGAAGUAUGGACUGGGCAGAGCUCAACACGGCGUGGCAAAGUGGCUGUGGCUAGACUGCCUCUCUGGAUUCCUCGUCACUCAGCAGGGCAUCCCUGAGAGAAAUGCC [U46A A69G U132C] | 0.49 |

| Variant | self-cleavage |
| --- | --- |
| UACGAAGGUGGUUUUCCCCUGAUAGUGCUAAGGGGGCCUGGAAGUUUGGACUGGGCAGAACUCAACACAGCGUGGCAAAGUGGCUGUGGCUAGACUGCCUCUCUGGAUUCCUCGUCACUCAGCGGGGCAUCUCUGAGAGAAACGCC [U5A G60A A124G U143C] | 0.12 |
| UACGAAGGUGGUUUUCCCAUGACAGUGCUAAGGGGGCCUGGAUGUUUGGACUGGGCAGAGCUCAACACAGCGUGGCAAAGUGGCUGUGGCUAGACUGCCUCUCUGGAUUCCUCGUCUCUCAGCAGGGCAUCUCUGUGAGAAAUGCC [U5A C19A U23C A43U A117U A136U] | 0.78 |
| UACGUAGGCGGUUUUCCCCUGAUAGUGCUAAGGGGGCCUGGAUGUUCGGACUGGGCAGAGCUCAACACAGCGUGGCAAAGUGGCUGUGGCUAGACUGCCUCUCUGGAUUCCUCGUCACUCAGCGGGGCAUCUCUGAGAGAAAUGCC [U9C A43U U47C A124G] | 1.15 |
| UACGUAGGUGGUUUUCCCCUGAUAGUGCUAAGGUGGCCUGGAAGUUUGGACCGGGCAGAGCUCAACACAGCGUGGCAAAGUGGCUGUGGCUAGACUGCCUCUCUGGGUUCCUCGUCACCCAGCAGGGCAUCUCUGAGAGAAAUGCC [G34U U52C A107G U119C] | 1.84 |
| UACGUAGGUGGUUUUCCCCUGAUAGUGCUAAGGGGGCCUGGAAGUUUGGACUGGGCAGUGCUCAACACAACGUGGCAAAGUGGCUGUGGCUAGACUGCCUCUCUGGACUCCUCGUCACUCAGCAGGGCAUCUCUGAGAGAAAUGCC [A59U G70A U108C] | 0.2 |
| UACGUAGGUGGUUUUCCCCUGAUAGUGCUAAGGGGGCCUGGAAGUUUGGACUGGGCAGUGCUCAACACAGCGUGGCAAAGUGGCUGCGGCUAGACUGCCUCUCUGGAUUCCUCGUCACUCAGCAGGGCAUCUCUGAGAGGAAUGCC [A59U U87C A140G] | 0.13 |
| UACGUAGGUGGUUUUCCCCUGAUAGUGCUAAGGGGGCCUGGUAGUUUGGACUGGGCAGAGCUCAACACAGCGUGGCGAAGUGGCUGUGGCUAGACUGCCUCUCUGGACUCCUCGUCACUCAGCAGGGCAUCUCUGAGAGAAAUGCC [A42U A77G U108C] | 1.39 |
| UACGUAGGUGGUAUUCCCGUGAUAGUGUUAAGGGGGCCUGGAAGUUUGGACUGGGCAGAGCUCAACACAGCGUGGCAAAGUGGCUGUGGCUAGACUGCCUCUCUGGAUGCCUCGUCACUCAGCAGGGCAUCUCUGAGAGAAAUGCC [U13A C19G C28U U109G] | 1.53 |
| UACGCAGGUGGUAUUCCCCUGAUAGUGCUAAGGGGGCCUGGAGGUUUGGACUGGGCAGAGCUCAACACAGCGUGGCAAGGUGGCUGUGGCUAGACUGCCUCUCUGGAUUCCUCGUCACUCAGCAGGGCAUCUCUGAGAGAAAUGCC [U5C U13A A43G A79G] | 0 |
| UACGUAGGUGGUUUUCCCUUGAUAGUGCUAAGGGGGCCUGGAAGUUUGGACUGGGCAGAGCUCAACACAGCGCGGCAAAGUGGCUGUGGCUAGACAGCCUCUCAGGAUUCCUCGUCACUCAGCAGGGCAUCUCUGAGAGAAAUGCC [C19U U73C U96A U104A] | 0.04 |
| UACGUAGGUGGUUUUCCCCUGAUAGUGCUAAGGGGGCCUGGAAGUUUGAACUGGGCAGAGCUCCACACAGCGAGGCAAGGUGGCUGUGGCUAGACUGCCUCUCUGGAUUCCACGUCACUCAGCAGGGCAUCUCUGAGAGAAAUGCC [G49A A64C U73A A79G U112A] | 0.2 |
| UGCGUAGGUGGUUUUCCCCUGAUAGUGCUAUGGGGGCCUGGAAGUCUGGACUGGGCAGAGCUCAACACAGCGUGGCAGAGUGGCUGUGGCUAGACUGCCUCUCUGGAUUCCUCGUCACUCAGCAGGGCUUCUCUGAGAGAAAUGCC [A2G A31U U46C A78G A129U] | 0.43 |
| UACGUAGGUGGUUUUCACCUGAUAGUGCUAAGGGGGCCUGGAAGUCUGGACUGGGCAGAGCUCAACACAGCGUGGCAAAGUGGCUGUGGCUAGACUGCCUCUCUGGAUUCCUCGUCACUCAGCAGGGCAUCUCUGAGAGAGAUGCC [C17A U46C A141G] | 1.72 |
| UACGUAGGUGGUUUUCCCCUGAUAGUGCUAAGGGGCCCUGGAAGUUCGGACUGGGCAAAGCCCAACAUAGCGUGGCAAAGUGGCUGUGGCUAGACUGCCUCUCAGGAUUCCUCGUCACUCAGCUGGGCAUCUCUGAGAGAAAUGCC [G36C U47C G58A U62C C68U U104A A124U] | 0.03 |
| UACGUAGGUGGUUUUCCUCUGAUAGAGCUAAGGGGGCCUGUAAGUUUGGACUGGGCAGAGCUCAACACAGCGUGGCAAGGUGGCUGUGGCUAGACUGCCUCUCUGGAUUCCUCGCCACUCAGCAGGGCAUCUCUGAGAGAAAUGCC [C18U U26A G41U A79G U115C] | 0.78 |
| UACGUAUGUGGUUUUCCCCUGAUAGUGCUAAGGGGGCCUAGAAGUUUGGACUGGGCAGAGCUCAACACAGCGUGGCAAAGUGGCUGUGGCUAGACUGCCUCUCUGGAUUCCUCGUCACUCAGCAGGGCAUCUCUGAGAGAAGUGCC [G7U G40A A142G] | 1.29 |
| UACGUAGGUGGAUUUCCCCUGAUAGUGCUAAGGGGGCCUGGAAGUUUGGACUGGGCAGAGCUCAACACAGCGCGGCAAAGUGGCUGUGGCUAGACUGCCUCUCUGGAUUCCUCGUCACUCAGCAGGGCAUCUCUGAGAGAGAUGCC [U12A U73C A141G] | 1.64 |
| UACGUAGGCGGUUUUCCCCUGAUAGUGCUAAGGGGGCCUGGAAGUUUGGACUGGGCAGAGCUCAACACAGCGUGGCAAAGUGGCAGUGGCUAGACUGCCUCCCUGGAUUCCUCGUCACUCUGCAGGGCAUCUCUGAGAGAAAUGCC [U9C U85A U102C A121U] | 0.18 |
| UACGUAGGUGGUUUUCCCCUGAUAGUGCUAAGGGGGCCUGGAAGUUUGGACUGGGCAGAGCUCAACACAGCGAGGCAAAGUGGCUGUGGCUAGACUGCCUCUCUGGAUUCCUCGGCACCCAGCAGGGCGUCUCUGAGAGAAAUGCC [U73A U115G U119C A129G] | 2.45 |
